These results are taken from ChEMBL document CHEMBL1201862, “PubChem BioAssay data set” (2004).

Where a name gives a salt, the structure may show the parent alone.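 Cultured in 96-well plates, cells were exposed to test compound for 48 hours across five concentrations. Abbreviation: GI50, concentration required for 50% inhibition of growth.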 Active and inactive are the calls of the source. Rule as the data show it: active = GI50 up to about 1.1 µM and inactive = higher. Some results are limits rather than exact numbers.

The test system of this assay is NCI-H322M. The experiment in a line: NCI-60 cell line screen, 48 h.
Turning to `COC(=O)c1ccc(O)c2nc3c(C=O)c(O)cc(O)c3nc12` [LOMOFUNGIN], the GI50 is inactive: 2 µM.
As for `CC[C@H](C)C(=O)O[C@H]1C[C@@H](C)C=C2C=C[C@H](C)[C@H](CC[C@@H]3C[C@@H](O)CC(=O)O3)[C@H]21` [LOVASTATIN], the GI50 is inactive: > 30 µM.
On to `O[C@H]1[C@H]2c3cc4c(cc3CN3CCC(=C[C@@H]1O)[C@H]23)OCO4` [LYCORINE], for which the GI50 is inactive: 1.43 µM.
As for `CC1=COC2=C(C)C(=O)C(=O)c3c(C)ccc1c32` [MANSONONE F], the GI50 is inactive: 2.65 µM.
The same measure for `COc1ccc2[nH]cc(CCNC(C)=O)c2c1` [MELATONIN]: inactive: > 100 µM; for `COc1c(OC)c(OC)c2c(c1OC)c(=O)c1ccccc1n2C` [MELICOPICINE]: inactive: > 100 µM.
The same measure for `CC1=CC(=O)c2ccccc2C1=O` [MENADIONE]: inactive: 15.3 µM; for `Sc1ncnc2nc[nH]c12` [MERCAPTOPURINE ANHYDROUS]: inactive: 9.46 µM; for `Nc1nccc(-c2c[nH]c3cc(Br)ccc23)n1` [MERIDIANIN D]: inactive: 24.1 µM.
In the case of `O=S(=O)(O)CCS` [MESNA], the GI50 is inactive: > 100 µM.
Consider `CN(Cc1cnc2nc(N)nc(N)c2n1)c1ccc(C(=O)N[C@@H](CCC(=O)O)C(=O)O)cc1` [METHOTREXATE], for which the GI50 is active: 0.604 µM.
Consider `COc1c2occc2cc2ccc(=O)oc12` [METHOXSALEN], for which the GI50 is inactive: > 100 µM.
The same measure for `CNC(C)Cc1ccccc1OC` (stereo not given) [METHOXYPHENAMINE HYDROCHLORIDE]: inactive: > 100 µM; for `COC(=O)c1cc(O)ccc1O` [METHYL 2,5-DIHYDROXYBENZOATE]: inactive: > 100 µM.
Turning to `C=C(C)[C@@H]1CC[C@]2(C(=O)OC)CC[C@]3(C)[C@H](CC[C@@H]4[C@@]5(C)CC[C@H](O)C(C)(C)[C@@H]5CC[C@]43C)[C@@H]12` [METHYL BETULINATE], the GI50 is inactive: 19.5 µM.
Regarding `CC/C=C\C/C=C\C/C=C\CCCCCCCC(=O)OC` [METHYL LINOLENATE], the GI50 is inactive: > 100 µM.
Turning to `COC(=O)C1(O)c2ccccc2N=C2C(=O)c3ccccc3N21` (stereo not given) [METHYLISATOID], the GI50 is inactive: > 100 µM.
Take `Cc1nc(N)nc(N)c1-c1ccc(Cl)c(Cl)c1` [METOPRINE]: the GI50 was inactive: 2.07 µM.
On to `Clc1ccc(COC(Cn2ccnc2)c2ccc(Cl)cc2Cl)c(Cl)c1` (stereo not given) [MICONAZOLE NITRATE], for which the GI50 was inactive: 10.7 µM.
As for `CCCCCCCCCCCCCCCCOP(=O)([O-])OCC[N+](C)(C)C` [MILTEFOSINE], the GI50 was inactive: 25.2 µM.
As to `COCC(O)Cn1ccnc1[N+](=O)[O-]` (stereo not given) [MISONIDAZOLE], the GI50 is inactive: > 100 µM.
For `O=C(O)Cc1cccc2c(=O)cc(-c3ccccc3)oc12` [MITOFLAXONE], the GI50 was inactive: > 250 µM.
As for `CO[C@@]12[C@H](COC(N)=O)C3=C(C(=O)C(C)=C(N)C3=O)N1C[C@@H]1N[C@@H]12` [MITOMYCIN], the GI50 was active: 0.995 µM.
On to `Clc1ccc(C(c2ccccc2Cl)C(Cl)Cl)cc1` (stereo not given) [MITOTANE], for which the GI50 was inactive: 20.2 µM.
Turning to `NC(=O)c1ncn2c(=O)n(CCCl)nnc12` [MITOZOLOMIDE], the GI50 was inactive: 205 µM.
For `CCOC(=O)Nc1cc2c(c(N)n1)N=C(c1ccccc1)[C@H](C)N2` [MIVOBULIN ISETHIONATE], the GI50 is active: < 0.0001 µM.
The figure for `CCOC(=O)C1=C(C)NC(=S)NC1c1cccc(O)c1` (stereo not given) [MONASTROL] is inactive: 35.9 µM; for `O=c1c(O)c(-c2ccc(O)cc2O)oc2cc(O)cc(O)c12` [MORIN] it is inactive: > 100 µM; for `C=C1C(=O)O[C@@H]2C(=O)[C@@H](C)[C@@H]3C=CC(=O)[C@@]3(C)[C@@H](OC(=O)/C(C)=C\C)[C@H]12` [MULTISTATIN] it is inactive: 13.2 µM.
As for `CC1=CC(=O)c2[nH]c3ccccc3c2C1=O` [MURRAYAQUINONE A], the GI50 is inactive: > 25 µM.
As to `COc1c(C)c2c(c(O)c1C/C=C(\C)CCC(=O)O)C(=O)OC2` [MYCOPHENOLIC ACID], the GI50 is inactive: 4.19 µM.
Take `CC(C)c1oc(=O)cc2c1C(O)C1OC(=O)C3(C)C(O)C4OC4C2(C)C13` (stereo not given) [NAGILACTONE]: the GI50 was inactive: 5.15 µM.
`CCn1cc(C(=O)O)c(=O)c2ccc(C)nc21` [NALIDIXIC ACID]: the GI50 is inactive: > 100 µM.
The same measure for `O=c1[nH]c2c(O)cccc2c2cc3c(c(O)c12)OCO3` [NARCIPRIMINE]: inactive: 18.8 µM; for `C[C@@H]1CC[C@@]2(C)[C@H](C)/C(=C\COC(=O)/C=C/c3ccc(O)c(O)c3)CC[C@@]12C` [NAVICULYL CAFFEATE]: inactive: 12.5 µM.
For `C/C1=C\C=C(\C(C)C)CC/C(C(=O)O)=C\CC/C(C)=C/CC1` [NEOCROTOCEMBRANEIC ACID], the GI50 is inactive: 18.5 µM.
Take `Cn1c2nc3ccccc3c-2cc2ccccc21` [NEOCRYPTOLEPINE HYDROCHLORIDE]: the GI50 is inactive: 2.6 µM.
`Cn1c2nc3ccccc3c-2cc2ccccc21` [NEOCRYPTOLEPINE]: the GI50 is inactive: 2.23 µM.
In the case of `Cc1ccc2ccc3ccc(C)nc3c2n1` [NEOCUPROINE], the GI50 was inactive: 1.96 µM.
The same measure for `Cn1cc(NC(=O)c2cc(NC(=O)CNC(=N)N)cn2C)cc1C(=O)NCCC(=N)N` [NETROPSIN CHLORIDE]: inactive: > 100 µM; for `COC(=O)C1=C(C)NC(C)=C(C(=O)OCCCN2CCC(c3ccccc3)(c3ccccc3)CC2)[C@H]1c1cccc([N+](=O)[O-])c1` [NIGULDIPINE]: inactive: 1.87 µM; for `NC(=O)c1cc([N+](=O)[O-])cc([N+](=O)[O-])c1` [NITROMIDE]: inactive: > 100 µM.
The figure for `COc1ccc(-c2cc(=O)c3c(OC)c(OC)c(OC)c(OC)c3o2)cc1OC` [NOBILETIN] is inactive: 39.1 µM; for `COC(=O)Nc1nc2cc(C(=O)c3cccs3)ccc2[nH]1` [NOCODAZOLE] it is active: 0.0234 µM.
Take `CNCCC=C1c2ccccc2CCc2ccccc21` [NORTRIPTYLINE HYDROCHLORIDE]: the GI50 is inactive: 14.7 µM.
On to `CO[C@@H]1[C@H](OC(=O)NC(=O)CCl)CC[C@]2(CO2)[C@H]1[C@@]1(C)O[C@@H]1CC=C(C)C` [O-CHLOROACETYLCARBAMOYLFUMAGILLOL], for which the GI50 is inactive: 14.5 µM.
Regarding `C=C1C(=O)O[C@@H]2C[C@]3(C)CC[C@]4(C)[C@H](CC[C@@H]5[C@@]6(C)CCC(=O)C(C)(C)[C@@H]6CC[C@]54C)[C@H]3[C@H]12` [OCHRACEOLIDE A], the GI50 was inactive: 24.2 µM.
In the case of `CCCCCCCCCCCCCCCCCCOP(=O)([O-])OCC[N+](C)(C)C` [OCTADECYLPHOSPHONOCHOLINE], the GI50 was active: 0.989 µM.
For `O=C(O)CN(CC(=O)O)Cc1cc2c(cc1O)Oc1cc(O)c(CN(CC(=O)O)CC(=O)O)cc1C21OC(=O)c2ccccc21` [OFTASCEINE], the GI50 is inactive: > 100 µM.
As to `Cn1cnc2c(NCc3ccccc3)nc(NCCO)nc21` [OLOMOUCINE], the GI50 was inactive: 76.4 µM.
The figure for `Cc1c(-c2cnccn2)ssc1=S` [OLTIPRAZ] is inactive: > 71.9 µM.
Consider `CC(C)=CCc1c(O)ccc2ccc(=O)oc12` [OSTHENOL], for which the GI50 is inactive: > 92 µM.
As to `O=C(O)CCc1nc(-c2ccccc2)c(-c2ccccc2)o1` [OXAPROZIN], the GI50 is inactive: > 100 µM.
The same measure for `NCCc1cc(O)c(O)cc1O` [OXIDOPAMINE HYDROCHLORIDE]: inactive: 58.9 µM; for `Cc1ccc(S(N)(=O)=O)cc1` [P-TOLUENESULFONAMIDE]: inactive: > 1000 µM; for `COc1cc2c(cc1OC)-c1cc3ccc(OC)c(OC)c3c[n+]1CC2` [PALMATINE CHLORIDE]: inactive: > 100 µM.
`O=C(O)c1cc2ccccc2c(Cc2c(O)c(C(=O)O)cc3ccccc23)c1O` [PAMOIC ACID]: the GI50 was inactive: > 100 µM.
Consider `O=C1N[C@H]2[C@H](O)[C@H](O)[C@@H](O)[C@H](O)[C@@H]2c2cc3c(c(O)c21)OCO3` [PANCRATISTATIN], for which the GI50 was active: 0.0384 µM.
Regarding `COc1cc(C)c(CC/C(C)=C/Cc2cc(O)ccc2O)c(C)c1C` [PANICEIN A HYDROQUINONE], the GI50 was inactive: > 25 µM.
For the compound `C/C(=C\Cc1cc(O)ccc1O)CCc1c(C)cc(O)c(C=O)c1C` [PANICEIN B3], the GI50 was inactive: 29.6 µM.
Regarding `C/C(=C\Cc1cc(O)ccc1O)CCc1c(C)c(O)c(O)c(C=O)c1C` [PANICEIN C], the GI50 is inactive: 35.6 µM.
Take `COc1ccc(Cc2nccc3cc(OC)c(OC)cc23)cc1OC` [PAPAVERINE HYDROCHLORIDE]: the GI50 was inactive: 59 µM.
For the compound `COc1ccc(CC(C)N)cc1` (stereo not given) [PARA-METHOXYAMPHETAMINE], the GI50 is inactive: > 100 µM.
Take `N#Cc1ccc2[nH]c3c(c2c1)CC(=O)Nc1ccccc1-3` [PAULLONE 2]: the GI50 was inactive: > 100 µM.
With `Nc1nc2[nH]cc(CCc3ccc(C(=O)N[C@@H](CCC(=O)O)C(=O)O)cc3)c2c(=O)[nH]1` [PEMETREXED], the GI50 is inactive: > 100 µM.
In the case of `O=C(OC[C@H]1O[C@@H](OC(=O)c2cc(O)c(O)c(O)c2)[C@H](OC(=O)c2cc(O)c(O)c(O)c2)[C@@H](OC(=O)c2cc(O)c(O)c(O)c2)[C@@H]1OC(=O)c1cc(O)c(O)c(O)c1)c1cc(O)c(O)c(O)c1` [PENTAGALLOYL GLUCOSE], the GI50 was inactive: 5.3 µM.
As for `S=C=NCCc1ccccc1` [PHENETHYLISOTHIOCYANATE], the GI50 is inactive: 1.78 µM.
As to `O=C(O)Cc1ccccc1` [PHENYLACETIC ACID], the GI50 is inactive: > 100 µM.
Consider `COc1cc(O)c2c(c1)C(=O)c1cc(C)cc(O)c1C2=O` [PHYSCION], for which the GI50 was inactive: > 100 µM.
The same measure for `Oc1cc(O)cc(/C=C/c2ccc(O)c(O)c2)c1` [PICEATANNOL]: inactive: 23.6 µM.
